# Assay results published in the supplement of paper PMC3334620.
# Whole data set: some 33,000 sequences, median “E-score (-0.5 to 0.5)” near -0.054, cut for the highest 2% near 0.39. The list shows a part of the results.
# Molecular target: Ylr278c (UniProt Q05854)
# Experiment: PBM E-score (8-mer binding enrichment) (E-score (-0.5 to 0.5)); higher = stronger / more preferred TF binding; most listed sequences are background and not binding sites
# Conditions: protein concentration: 200 nM; construct: GST-DNA-binding domain
# Method: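 Universal 'all 10-mer' protein binding microarrays (Agilent AMADID 015681) probed with GST-tagged S. cerevisiae TFs (full-length or DBD) made by in vitro transcription/translation (PURExpress), about 100-200 nM. Bound TF was detected with fluorescent anti-GST. Each ungapped 8-mer (which stands for itself and its reverse complement) is scored by the PBM enrichment score (E-score), a modified Wilcoxon-Mann-Whitney statistic from -0.5 to +0.5, computed with the Universal PBM Analysis Suite. Scale: above 0.35 generally sequence-specific binding.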
row,Sequence,PBM E-score
1,AATTGGTC,0.0862
2,AGATCTAT,-0.219
3,CGCGACGA,0.0288
4,CAAGCTAG,-0.25
5,CAAACACA,-0.233
6,AGGTCGCC,0.0324
7,AGAGTAGA,-0.0108
8,CACGTTCC,-0.0503
9,ACCGGTTC,0.234
10,CATCTAGC,-0.143
11,ATGAAGCG,-0.0128
12,AAACTTAT,0.0821
13,AGGCAAGA,-0.222
14,TGGGTCAA,-0.254
15,CTTTATTA,-0.172
16,CATCCGCA,0.191
17,CGACGACG,0.0129
18,CGAAAATA,0.137
19,GAGAGTTA,-0.158
20,ATCTCTTC,-0.0198
21,ACTCGCGC,0.152
22,AGATCAGC,0.0216

row,Sequence,PBM E-score
1,CCATTACC,0.0409
2,CACGGCCG,0.234
3,GATTTTGA,0.0907
4,AATTTATG,0.0615
5,AGGACGAC,-0.166
6,CATACGCA,-0.0371
7,GTTGATGA,0.0375
8,TATATAAA,-0.0633
9,ACCTCACC,0.0171
10,CATTCTCA,-0.0558
11,ACTCATGA,-0.182
12,CCAATGGG,-0.166
13,TATAATAA,0.0321
14,AGACCTTA,-0.115
15,AGATTACG,0.154
16,TTTCCAAA,-0.0606
17,AGGTCTAA,-0.0866
18,ACATGCCC,-0.128
19,CCCGTAGA,-0.0186
20,ACCACGGT,-0.197
21,ACAATCGC,0.154
22,CAAGTCCG,0.455

row,Sequence,PBM E-score
1,AAATATGT,0.19
2,AAAATACT,0.11
3,ATATTCAG,-0.0289
4,CCCACCAG,-0.212
5,ATGAGTCA,-0.274
6,GTCAGCGA,-0.131
7,AATCAGGG,-0.199
8,ACGGGACG,0.0663
9,ATGAATTG,-0.0937
10,GCACCCCA,0.0499
11,TGTGAACA,-0.123
12,GTGTTGGA,-0.122
13,CACCTTAA,-0.162
14,CGGGTCAA,0.266
15,CATCGTAC,-0.204
16,GTCGACAC,-0.141
17,TACGTAAA,-0.441
18,AATTATGG,-0.0486
19,CCAGCCCC,0.0145
20,TGGTCAAA,-0.222
21,CCGTTAGG,0.0236
22,AGGCCAAT,-0.0939

row,Sequence,PBM E-score
1,AGCTAACA,-0.174
2,CAATAGAC,-0.115
3,ATCCCTAC,-0.0443
4,GAGAGGGA,-0.239
5,ACATCCCA,-0.131
6,AACTAAGG,-0.149
7,CGACCCTC,-0.00161
8,GGCTTTGA,0.131
9,AAGGCGTG,-0.117
10,GACGCCCA,-0.036
11,AGGCGAAC,-0.157
12,GAGAAGCA,-0.0512
13,CTAATAAA,-0.0675
14,GCTAAGTA,-0.1
15,CCTTTGCA,-0.219
16,AGCTGACA,-0.133
17,AGCGGCCT,0.129
18,CCGTATTC,0.202
19,ACGCTCGA,-0.123
20,AGTTGTAG,-0.0909
